For four molecules, binding results are on record in publication PMC1793994.

These are yes or no findings as the source states them, for the method shown. In cells and extracts the contact can be indirect. Some results given as binding are weak or reduced against the parent protein; the word gives no strength. Sequences can lack the tags named with a protein.

For assay [1], the target named is T1, Myc-EHD3 (human) (UniProt Q9NZN3).
T1 sequence: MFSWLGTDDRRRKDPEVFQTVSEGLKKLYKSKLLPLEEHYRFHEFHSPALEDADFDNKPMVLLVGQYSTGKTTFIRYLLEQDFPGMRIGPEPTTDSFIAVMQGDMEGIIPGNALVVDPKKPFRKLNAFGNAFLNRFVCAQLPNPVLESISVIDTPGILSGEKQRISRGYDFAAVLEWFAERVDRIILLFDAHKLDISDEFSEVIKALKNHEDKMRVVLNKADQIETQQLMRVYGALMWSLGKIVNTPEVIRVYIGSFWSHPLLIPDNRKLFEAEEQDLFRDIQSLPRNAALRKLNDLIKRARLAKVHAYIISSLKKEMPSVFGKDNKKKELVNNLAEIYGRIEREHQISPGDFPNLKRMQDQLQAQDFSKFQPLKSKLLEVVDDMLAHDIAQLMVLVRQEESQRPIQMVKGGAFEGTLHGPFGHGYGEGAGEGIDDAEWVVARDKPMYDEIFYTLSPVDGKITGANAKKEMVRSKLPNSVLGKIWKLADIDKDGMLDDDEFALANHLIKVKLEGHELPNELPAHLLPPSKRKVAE
The assay can be described thus: co-IP; HeLa cells, Myc- and GFP-tagged EHD proteins; data not shown.

Assay [2] concerns the target T2, Myc-EHD2 (human) (UniProt Q9NZN4).
T2 sequence: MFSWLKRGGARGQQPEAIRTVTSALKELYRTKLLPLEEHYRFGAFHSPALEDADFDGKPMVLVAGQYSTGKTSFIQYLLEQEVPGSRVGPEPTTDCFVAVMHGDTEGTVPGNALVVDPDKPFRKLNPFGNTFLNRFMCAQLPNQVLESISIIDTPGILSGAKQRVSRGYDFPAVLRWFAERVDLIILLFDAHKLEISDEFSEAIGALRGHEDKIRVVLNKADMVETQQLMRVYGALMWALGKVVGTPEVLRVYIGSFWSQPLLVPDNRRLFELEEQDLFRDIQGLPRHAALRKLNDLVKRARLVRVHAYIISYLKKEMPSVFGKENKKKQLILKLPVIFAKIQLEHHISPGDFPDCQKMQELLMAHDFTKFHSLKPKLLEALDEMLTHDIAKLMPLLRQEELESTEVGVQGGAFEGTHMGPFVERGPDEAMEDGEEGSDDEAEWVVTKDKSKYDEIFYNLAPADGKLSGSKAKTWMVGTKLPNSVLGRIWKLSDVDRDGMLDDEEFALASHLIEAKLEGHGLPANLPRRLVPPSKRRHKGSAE
The assay is described as above.

Assay [3] deals with T3, Myc-EHD4 (human) (UniProt Q9H223).
T3 sequence: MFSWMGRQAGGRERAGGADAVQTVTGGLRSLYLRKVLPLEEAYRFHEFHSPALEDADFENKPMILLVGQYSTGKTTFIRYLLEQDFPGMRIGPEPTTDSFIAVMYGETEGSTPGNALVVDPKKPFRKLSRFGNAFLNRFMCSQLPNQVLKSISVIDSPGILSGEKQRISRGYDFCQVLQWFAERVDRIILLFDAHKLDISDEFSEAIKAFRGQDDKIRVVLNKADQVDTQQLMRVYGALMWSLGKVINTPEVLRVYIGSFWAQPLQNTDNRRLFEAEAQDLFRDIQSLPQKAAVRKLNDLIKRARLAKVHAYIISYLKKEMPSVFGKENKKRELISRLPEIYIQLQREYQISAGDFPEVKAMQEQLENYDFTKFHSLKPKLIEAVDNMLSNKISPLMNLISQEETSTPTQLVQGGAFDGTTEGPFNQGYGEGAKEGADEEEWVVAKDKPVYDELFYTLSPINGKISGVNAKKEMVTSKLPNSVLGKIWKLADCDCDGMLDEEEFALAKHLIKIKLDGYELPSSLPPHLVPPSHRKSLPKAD
Described as above.

For assay [4], the target named is T1, Myc-EHD3 (human). The assay can be described thus: co-IP; HEK 293T co-transfected with one Myc-tagged and one GFP-tagged construct (2.5 μg each); lysis in 1% Triton X-100, 150 mM NaCl, 50 mM Tris-HCl pH 7.6; lysates rocked overnight at 4°C; 1 mg lysate, IP with 3 μg anti-Myc (9E10), anti-GFP immunoblot. In general terms: A western blot detects proteins with antibodies after separation by electrophoresis.

Assay [5] has as its target T2, Myc-EHD2 (human). The description is as above.
Assay [6] concerns the target T3, Myc-EHD4 (human). The description is as above.
Assay [7] deals with T4, Myc-EHD1 (human) (UniProt Q9H4M9).
T4 sequence: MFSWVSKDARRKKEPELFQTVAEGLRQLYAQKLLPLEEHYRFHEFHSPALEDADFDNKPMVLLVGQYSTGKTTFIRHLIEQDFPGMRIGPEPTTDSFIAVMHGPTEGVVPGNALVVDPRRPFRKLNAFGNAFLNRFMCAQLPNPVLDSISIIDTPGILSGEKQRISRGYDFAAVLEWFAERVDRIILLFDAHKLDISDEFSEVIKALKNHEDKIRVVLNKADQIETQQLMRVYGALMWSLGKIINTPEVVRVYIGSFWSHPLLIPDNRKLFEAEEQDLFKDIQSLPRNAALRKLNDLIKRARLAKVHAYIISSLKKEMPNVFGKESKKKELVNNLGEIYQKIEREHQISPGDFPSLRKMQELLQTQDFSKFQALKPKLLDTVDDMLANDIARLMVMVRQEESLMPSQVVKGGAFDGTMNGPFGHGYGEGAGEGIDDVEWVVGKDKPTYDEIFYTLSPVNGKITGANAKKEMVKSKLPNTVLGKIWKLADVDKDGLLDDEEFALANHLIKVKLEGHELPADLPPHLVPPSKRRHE
The assay can be described thus: co-IP; HeLa cells, Myc- and GFP-tagged EHD proteins; data not shown.

Assay [8] has as its target T4, Myc-EHD1 (human). Nature of the assay: co-IP; HEK 293T co-transfected with one Myc-tagged and one GFP-tagged construct (2.5 μg each); lysis in 1% Triton X-100, 150 mM NaCl, 50 mM Tris-HCl pH 7.6; lysates rocked overnight at 4°C; 1 mg lysate, IP with 3 μg anti-Myc (9E10), anti-GFP immunoblot.

B1: EHD2-GFP (protein, UniProt Q9NZN4 1-543)
chain: MFSWLKRGGARGQQPEAIRTVTSALKELYRTKLLPLEEHYRFGAFHSPALEDADFDGKPMVLVAGQYSTGKTSFIQYLLEQEVPGSRVGPEPTTDCFVAVMHGDTEGTVPGNALVVDPDKPFRKLNPFGNTFLNRFMCAQLPNQVLESISIIDTPGILSGAKQRVSRGYDFPAVLRWFAERVDLIILLFDAHKLEISDEFSEAIGALRGHEDKIRVVLNKADMVETQQLMRVYGALMWALGKVVGTPEVLRVYIGSFWSQPLLVPDNRRLFELEEQDLFRDIQGLPRHAALRKLNDLVKRARLVRVHAYIISYLKKEMPSVFGKENKKKQLILKLPVIFAKIQLEHHISPGDFPDCQKMQELLMAHDFTKFHSLKPKLLEALDEMLTHDIAKLMPLLRQEELESTEVGVQGGAFEGTHMGPFVERGPDEAMEDGEEGSDDEAEWVVTKDKSKYDEIFYNLAPADGKLSGSKAKTWMVGTKLPNSVLGRIWKLSDVDRDGMLDDEEFALASHLIEAKLEGHGLPANLPRRLVPPSKRRHKGSAE
With B1, the binding result in the assay with Myc-EHD3 (human) [1] is on record as “binds weakly”; with Myc-EHD2 (human) [2] it was “binds”; with Myc-EHD4 (human) [3] it was “binds weakly”; in the assay with Myc-EHD3 (human) [4], “binds weakly”; with Myc-EHD2 (human) [5] it was “binds”; with Myc-EHD4 (human) [6], “binds weakly”.

B2: EHD4-GFP (protein, UniProt Q9H223 1-541)
chain: MFSWMGRQAGGRERAGGADAVQTVTGGLRSLYLRKVLPLEEAYRFHEFHSPALEDADFENKPMILLVGQYSTGKTTFIRYLLEQDFPGMRIGPEPTTDSFIAVMYGETEGSTPGNALVVDPKKPFRKLSRFGNAFLNRFMCSQLPNQVLKSISVIDSPGILSGEKQRISRGYDFCQVLQWFAERVDRIILLFDAHKLDISDEFSEAIKAFRGQDDKIRVVLNKADQVDTQQLMRVYGALMWSLGKVINTPEVLRVYIGSFWAQPLQNTDNRRLFEAEAQDLFRDIQSLPQKAAVRKLNDLIKRARLAKVHAYIISYLKKEMPSVFGKENKKRELISRLPEIYIQLQREYQISAGDFPEVKAMQEQLENYDFTKFHSLKPKLIEAVDNMLSNKISPLMNLISQEETSTPTQLVQGGAFDGTTEGPFNQGYGEGAKEGADEEEWVVAKDKPVYDELFYTLSPINGKISGVNAKKEMVTSKLPNSVLGKIWKLADCDCDGMLDEEEFALAKHLIKIKLDGYELPSSLPPHLVPPSHRKSLPKAD
For the molecule B2, the binding entry with Myc-EHD3 (human) [1] is “binds”; with Myc-EHD2 (human) [2], “binds weakly”; with Myc-EHD1 (human) [7], “binds”; with Myc-EHD4 (human) [3], “binds”; in the assay with Myc-EHD3 (human) [4], “binds”; in the assay with Myc-EHD2 (human) [5], “binds weakly”. Also, the binding entry in the assay with Myc-EHD1 (human) [8] and in the assay with Myc-EHD4 (human) [6] was “binds” in each case.

B3: EHD1-GFP (protein, UniProt Q9H4M9 1-534)
chain: MFSWVSKDARRKKEPELFQTVAEGLRQLYAQKLLPLEEHYRFHEFHSPALEDADFDNKPMVLLVGQYSTGKTTFIRHLIEQDFPGMRIGPEPTTDSFIAVMHGPTEGVVPGNALVVDPRRPFRKLNAFGNAFLNRFMCAQLPNPVLDSISIIDTPGILSGEKQRISRGYDFAAVLEWFAERVDRIILLFDAHKLDISDEFSEVIKALKNHEDKIRVVLNKADQIETQQLMRVYGALMWSLGKIINTPEVVRVYIGSFWSHPLLIPDNRKLFEAEEQDLFKDIQSLPRNAALRKLNDLIKRARLAKVHAYIISSLKKEMPNVFGKESKKKELVNNLGEIYQKIEREHQISPGDFPSLRKMQELLQTQDFSKFQALKPKLLDTVDDMLANDIARLMVMVRQEESLMPSQVVKGGAFDGTMNGPFGHGYGEGAGEGIDDVEWVVGKDKPTYDEIFYTLSPVNGKITGANAKKEMVKSKLPNTVLGKIWKLADVDKDGLLDDEEFALANHLIKVKLEGHELPADLPPHLVPPSKRRHE
For the molecule B3, the binding entry with Myc-EHD3 (human) [1], in the assay with Myc-EHD1 (human) [7], with Myc-EHD4 (human) [3], with Myc-EHD3 (human) [4], with Myc-EHD1 (human) [8] and with Myc-EHD4 (human) [6] was “binds” each time.

B4: EHD3-GFP (protein, UniProt Q9NZN3-1 1-535)
chain: MFSWLGTDDRRRKDPEVFQTVSEGLKKLYKSKLLPLEEHYRFHEFHSPALEDADFDNKPMVLLVGQYSTGKTTFIRYLLEQDFPGMRIGPEPTTDSFIAVMQGDMEGIIPGNALVVDPKKPFRKLNAFGNAFLNRFVCAQLPNPVLESISVIDTPGILSGEKQRISRGYDFAAVLEWFAERVDRIILLFDAHKLDISDEFSEVIKALKNHEDKMRVVLNKADQIETQQLMRVYGALMWSLGKIVNTPEVIRVYIGSFWSHPLLIPDNRKLFEAEEQDLFRDIQSLPRNAALRKLNDLIKRARLAKVHAYIISSLKKEMPSVFGKDNKKKELVNNLAEIYGRIEREHQISPGDFPNLKRMQDQLQAQDFSKFQPLKSKLLEVVDDMLAHDIAQLMVLVRQEESQRPIQMVKGGAFEGTLHGPFGHGYGEGAGEGIDDAEWVVARDKPMYDEIFYTLSPVDGKITGANAKKEMVRSKLPNSVLGKIWKLADIDKDGMLDDDEFALANHLIKVKLEGHELPNELPAHLLPPSKRKVAE
On to B4, for which the binding result with Myc-EHD3 (human) [1] was “binds”; with Myc-EHD2 (human) [2], “binds weakly”; with Myc-EHD1 (human) [7], “binds”; in the assay with Myc-EHD4 (human) [3], “binds”; in the assay with Myc-EHD3 (human) [4] it was “binds”; with Myc-EHD2 (human) [5] it was “binds weakly”. Further, the binding entry in the assay with Myc-EHD1 (human) [8] and with Myc-EHD4 (human) [6] was “binds” each time.
